PMC4336329 (PLoS ONE, 2015)
About 14,000 (4.5%) of roughly 310,000 compounds showed an effect of 50% or more. Effects have a minus sign here. The list shows a part of the results.

target: human ether-à-go-go-related gene (hERG) potassium channel (human, UniProt Q12809); assay: primary screen, population patch clamp on CHO cells stably expressing hERG
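Note: peak tail current of the secondary pulse compared with the same well before compound.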

human ether-à-go-go-related gene (hERG) potassium channel, sequence (Q12809 whole entry, looked up): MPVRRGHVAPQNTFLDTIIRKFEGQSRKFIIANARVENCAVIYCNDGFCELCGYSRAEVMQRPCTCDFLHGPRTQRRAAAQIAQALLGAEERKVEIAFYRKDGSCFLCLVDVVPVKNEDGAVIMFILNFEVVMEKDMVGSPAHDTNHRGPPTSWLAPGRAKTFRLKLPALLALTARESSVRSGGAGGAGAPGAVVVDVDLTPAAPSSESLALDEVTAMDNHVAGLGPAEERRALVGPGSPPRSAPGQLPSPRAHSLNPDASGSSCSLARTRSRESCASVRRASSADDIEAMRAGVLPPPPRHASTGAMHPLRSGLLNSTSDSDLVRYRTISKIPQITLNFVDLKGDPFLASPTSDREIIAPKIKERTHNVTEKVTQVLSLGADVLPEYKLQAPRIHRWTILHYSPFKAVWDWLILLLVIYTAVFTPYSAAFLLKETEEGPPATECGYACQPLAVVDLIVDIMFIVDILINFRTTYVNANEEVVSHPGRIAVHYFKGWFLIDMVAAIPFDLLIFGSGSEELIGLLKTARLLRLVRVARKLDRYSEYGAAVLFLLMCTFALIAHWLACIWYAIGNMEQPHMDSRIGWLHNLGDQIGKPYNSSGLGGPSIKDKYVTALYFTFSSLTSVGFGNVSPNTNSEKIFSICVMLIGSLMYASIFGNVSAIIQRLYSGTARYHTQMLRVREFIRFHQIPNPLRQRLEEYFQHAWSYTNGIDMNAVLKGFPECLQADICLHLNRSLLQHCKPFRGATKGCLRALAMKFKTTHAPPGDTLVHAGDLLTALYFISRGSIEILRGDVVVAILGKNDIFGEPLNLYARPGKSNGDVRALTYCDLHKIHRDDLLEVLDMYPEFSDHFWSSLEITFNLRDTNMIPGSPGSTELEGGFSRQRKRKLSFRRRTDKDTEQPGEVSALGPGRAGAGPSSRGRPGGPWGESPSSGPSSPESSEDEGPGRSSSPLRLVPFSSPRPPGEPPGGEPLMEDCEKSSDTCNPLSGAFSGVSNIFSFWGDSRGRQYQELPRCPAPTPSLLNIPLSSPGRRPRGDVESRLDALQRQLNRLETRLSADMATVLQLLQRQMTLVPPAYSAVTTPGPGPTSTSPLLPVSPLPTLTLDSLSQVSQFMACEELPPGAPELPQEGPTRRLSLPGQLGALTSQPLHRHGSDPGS

| Structure (SMILES) | hERG current change (%, negative = inhibition) at 10uM [%] |
| --- | --- |
| O=C(COC(=O)c1cccs1)Nc1cc(S(=O)(=O)N2CCOCC2)ccc1Cl | -35.5 |
| O=C(CN(C(=O)CCC(=O)Nc1nccs1)c1ccccc1F)NCc1ccc(F)cc1 | 1.98 |
| Cc1cc(CSc2ccccc2C(=O)O)on1 | 17.5 |
| CC(=O)NCCc1nc2ccccc2n1CCCCOc1ccccc1 | -38.6 |
| C=CC(O)Cc1c(C)n[nH]c1C (stereo not shown) | -2.98 |
| CSCC(=O)N1CCC(Oc2cccc(C(=O)NCc3ccccn3)c2)CC1 | 16 |
| Cc1ccc(N2C(=O)Cc3ccccc3C2=O)cc1 | 19.9 |
| O=S(=O)(Nc1ccc(Cl)cn1)c1ccc(Cl)cc1 | 16.3 |
| O=C1C(=O)N(CCCO)C(c2ccc(Br)cc2)/C1=C(\O)c1ccc(Br)cc1 (stereo not shown) | 4.02 |
| O=P1(Nc2ccc(F)cc2)COc2ccccc2OC1 | -17.2 |
| O=C(Cc1ccccc1)Nc1cccc(-c2nc3ncccc3o2)c1 | 13.6 |
| C[C@]12C(=O)N(c3cccc(F)c3)C(=O)N1[C@@H]1c3ccccc3OC[C@@H]1[C@H]2c1ccccc1 | 13 |
| COCCn1c(N)c(C(=O)Nc2sc3c(c2C(=O)OC)CCCC3)c2nc3ccccc3nc21 | 5.87 |
| C/C(CC(=O)Nc1ccccc1C#N)=N\NC(=O)c1ccncc1 | -2.97 |
| C/C(=N\O)c1c(C)c2ccccc2n1C | -4.71 |
| CC(C)(C)C(=O)N(CCN(C(=O)C(C)(C)C)c1ccccc1)c1ccccc1 | 16.4 |
| CCCCCCNC(=O)CCCCCNS(=O)(=O)c1ccc(Br)cc1 | -4.75 |
| O=C(COc1ccc(Cl)cc1)NCCSCc1cccc(Cl)c1 | -13.5 |
| Cc1ccc(NC(=O)C2(c3cccs3)CCOCC2)cc1C | -10.6 |
| CSc1nc2nc(-c3cccc(C(F)(F)F)c3)ccn2n1 | 17.2 |
| Cc1cc(C(=O)COc2cccnc2[N+](=O)[O-])c(C)n1Cc1cccs1 | -8.03 |
| CCNC(=O)/C(C#N)=C/c1c(N2CCN(c3ccc(OC)cc3)CC2)nc2c(C)cccn2c1=O | -22.1 |
| Cc1ccc(-c2nc(CS(=O)CC(=O)NCCN3CCCCCC3)c(C)o2)cc1 (stereo not shown) | -15.7 |
| Cc1ccc(NS(=O)(=O)c2cc(C(=O)NCCSC3CCCCC3)ccc2C)cc1 | -6.77 |
| COc1c(F)c(F)c(C(=O)O)c(Nc2cc(C)cc(C)c2)c1F | 13.1 |
